No constants are given. Whether binding was seen depends on the method and setting. Binding seen in cells or lysates may run through a third protein. Some entries that bind do so weakly or less than the wild type.

The chains behind the UniProt entries cited, without tags or fusion partners. Where a name states a change or a piece, a line headed by the entry shows the natural chain unless it says otherwise. Residues count along the entry.
UniProt Q99816: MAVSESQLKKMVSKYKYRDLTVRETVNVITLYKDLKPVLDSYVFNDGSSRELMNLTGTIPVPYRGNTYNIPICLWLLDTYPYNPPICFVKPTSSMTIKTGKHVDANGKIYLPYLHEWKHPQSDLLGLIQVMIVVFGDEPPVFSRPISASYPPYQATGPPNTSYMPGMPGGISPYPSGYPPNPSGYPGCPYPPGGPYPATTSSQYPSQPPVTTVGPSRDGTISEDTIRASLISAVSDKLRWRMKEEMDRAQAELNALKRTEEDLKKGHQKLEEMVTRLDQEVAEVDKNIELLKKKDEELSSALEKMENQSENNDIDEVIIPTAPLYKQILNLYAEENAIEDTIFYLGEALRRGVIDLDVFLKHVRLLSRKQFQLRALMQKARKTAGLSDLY
UniProt Q8NEZ2: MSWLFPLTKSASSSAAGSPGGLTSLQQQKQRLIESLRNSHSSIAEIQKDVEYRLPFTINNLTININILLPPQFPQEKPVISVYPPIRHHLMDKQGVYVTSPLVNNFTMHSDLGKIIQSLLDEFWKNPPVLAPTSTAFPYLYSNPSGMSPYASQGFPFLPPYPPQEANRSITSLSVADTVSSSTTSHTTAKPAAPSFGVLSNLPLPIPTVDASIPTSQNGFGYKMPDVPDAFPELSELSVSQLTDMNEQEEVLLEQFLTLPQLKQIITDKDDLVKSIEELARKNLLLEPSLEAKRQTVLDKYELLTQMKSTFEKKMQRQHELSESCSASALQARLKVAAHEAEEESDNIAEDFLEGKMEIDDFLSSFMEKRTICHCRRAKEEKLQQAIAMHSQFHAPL
Flag–VPS37A(Mod(r)): residues 229-397 of Q8NEZ2
UniProt A5D8V6: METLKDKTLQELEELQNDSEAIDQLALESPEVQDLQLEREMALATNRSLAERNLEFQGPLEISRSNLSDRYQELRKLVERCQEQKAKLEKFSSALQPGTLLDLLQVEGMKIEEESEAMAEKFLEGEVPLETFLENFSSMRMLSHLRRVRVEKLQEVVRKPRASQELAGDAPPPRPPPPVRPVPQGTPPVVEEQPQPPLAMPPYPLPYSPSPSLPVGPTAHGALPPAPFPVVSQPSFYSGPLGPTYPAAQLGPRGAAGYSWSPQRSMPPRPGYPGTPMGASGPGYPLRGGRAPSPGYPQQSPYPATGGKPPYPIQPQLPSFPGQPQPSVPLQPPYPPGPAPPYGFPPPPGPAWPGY

The target in assay [1] is HA–TSG101 (in vitro translated) (human) (UniProt Q99816). Kind of assay: co-IP; 35S-labelled ESCRT-I subunits co-translated in rabbit reticulocyte lysate, diluted tenfold in 10 mM Tris-HCl pH 7.4, 150 mM NaCl, 1 mM EDTA, 0.1% Triton X-100; IP of HA–TSG101 with anti-HA agarose overnight; SDS-PAGE and phosphoimaging.
Assay [2] deals with Flag–VPS37A (in vitro translated, full length) (human) (UniProt Q8NEZ2). The description is as above.
For assay [3], the target named is Flag–VPS37C (in vitro translated) (human) (UniProt A5D8V6). The assay is described as above.
Assay [4] concerns the target MVB12A–strep (expressed in cells) (human) (UniProt Q96EY5). Kind of assay: pull-down; lysates of cells transiently expressing strep-tagged UBAP1, UBAP1 fragments or MVB12A applied to Strep-Tactin beads; control-depleted cells (for MVB12A also cells depleted of VPS37A, VPS37B or VPS37C); 10 mM Tris-HCl pH 7.4, 150 mM NaCl, 1 mM EDTA, 0.5% CHAPS; 4°C; western blot of endogenous partners. (In general: Immunoblotting shows a protein as a band on a membrane.)

Assay [5] has as its target Flag–VPS37A(Mod(r)) (human) (UniProt Q8NEZ2). Kind of assay: co-IP; 35S-labelled ESCRT-I subunits co-translated in rabbit reticulocyte lysate, diluted tenfold in 10 mM Tris-HCl pH 7.4, 150 mM NaCl, 1 mM EDTA, 0.1% Triton X-100; IP of HA–TSG101 with anti-HA agarose overnight; SDS-PAGE and phosphoimaging.

For “Flag–VPS37A (in vitro translated, full length) (from UniProt Q8NEZ2 1-397)”, in assay [1], the binding result was “binds”.

On to “MVB12A(EBB1-EBB2) (from UniProt Q96EY5 192-273) (domain or fragment)”, for which the binding entry in assay [2] is recorded as “no binding”; in assay [3], “binds”.

On to “VPS37C (endogenous) (from UniProt A5D8V6 1-355)”, for which the binding entry in assay [4] is reported as “binds”.

Regarding “strep–MVB12A (in vitro translated, full length) (from UniProt Q96EY5 1-273)”, the binding entry in assay [2] is “no binding”; in assay [5], “no binding”; in assay [3], “binds”.

For the origin of these results see PMC4007767.
